± gives the standard deviation of the averaged measurements. This is one part of the list.
These sequences were tested on PfAP2-I AP2 domain 3 (GST-tagged) (assay: gcPBM binding intensity (ln(normalized median fluorescence intensity)); higher = stronger DNA binding).
Summary of the method: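 GST-tagged P. falciparum DNA-binding domains, expressed in E. coli (about 25 μg on average), were applied for 1 h to an Agilent 4 × 180k array of primer-extended double-stranded 36-bp intergenic genomic probes plus negative controls. The binding buffer was 1× PBS with 1% milk, 0.2 mg/ml BSA, 0.5% salmon testes DNA and 0.03% Triton X-100. Bound protein was detected with Alexa488 anti-GST antibody and scanned at 488 nm. Binding intensity is the highest Masliner-normalised natural-log median intensity across replicate spots of either probe orientation.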

| Sequence | gcPBM binding intensity (ln) |
| --- | --- |
| TATATTTATGTATATGTGCACATAAATTTAAGAATG [GTGCAC_site9512] | 9.68 ± 0.19 |
| ATAGCCAAAAATCATGCACACCTAAAAAAAAAAAAA [CACACA_site8826] | 8.715 ± 0.064 |
| TTTTTTATTAAAAGCGAAAAAAATGAAAACTTTTTT [GTGCAC_negctrl_site605] | 7.52 ± 0.59 |
| GAAGTAGATGGAAAAGTGCACTGTAATGGTTATATT | 10.6 ± 0.035 |
| TTTTTAATTAACTTTGTAAACTTATATATATATATA [TGCATGCA_negctrl_site311] | 9.22 ± 0.45 |
| TTAAAGCACCCATGCACACACACAAGGGAAAAGAAA [CACACA_site4289] | 10.9 ± 0.92 |
| AAGGAATATTAAGTGGGTACTAAAAAAAAATTAATT [XGTACX_site331] | 7.88 ± 0.64 |
| TGTATATAGAAACATACACACATATTAATTTTACAT [CACACA_site3126] | 7.62 ± 0.54 |
| TCCAATTAAATATATGAACACACATGTGAACTTTCT [CACACA_site9318] | 7.54 ± 0.46 |
| TTAAGTCATAAATAAAGTACATAAATATAATATATA [XGTACX_site6304] | 7.67 ± 0.23 |
| ATGTAAATGTTATTATGTACATATTTATTCTTCAAA [XGTACX_site7377] | 7.75 ± 0.47 |
| GGGGGTAGGGGAAGAAGTACAATGATCACTACAGTA [XGTACX_site1169] | 9.54 ± 0.13 |
| GTTAAAATTTGTCAATGTACAGAAATAATAAAAAAA [XGTACX_site1879] | 7.97 ± 0.62 |
| AAAGTTTTTACCAAGTGTACATATATATATATATAT [XGTACX_site5786] | 9.35 ± 0.27 |
| TATTTTTTTTAGCGTACATGCAAAAAAAAAAAAAAA [TGCATGCA_site555] | 8.2 ± 0.51 |
| GTTTATTTATTTTATGTGCACATATAACAAAAAAAA | 10.36 ± 0.028 |
| TTTTTTCTTTAATACTCAATATGATAAAAGTAACAC [XGTACX_negctrl_site163] | 7.83 ± 0.39 |
| AAAAATAAAAAGAATTGTACATATAAATCATATACA [XGTACX_site6860] | 7.33 ± 0.29 |
| GACCCAATGAAAAGGTCACACATTTTTTCTTTTCGA [CACACA_site5074] | 7.38 ± 0.76 |
| TAAAAATATATAAACAGTACATAAATTAAATAAATA [XGTACX_site6962] | 7.54 ± 0.46 |
| ATATAAACATGTTTGTGTACGTAATATGAAAAATAA [XGTACX_site8157] | 8.38 ± 0.33 |
| GTATGTATAATATACACACTCACAAGCATTCAAATA [CACACA_site267] | 7.63 ± 0.5 |
| AAATATTATACAAAAAAAAAAAAAAAAAAAATATAT [CACACA_negctrl_site52] | 7.57 ± 0.5 |

| Sequence | gcPBM binding intensity (ln) |
| --- | --- |
| ATTTTGTATATATTTTGTACATATTTTGTATATATT [XGTACX_site885] | 7.73 ± 0.68 |
| TTGTTTTTAAGAAAAACACACACTCCTGTTATTTTA [CACACA_site9230] | 7.43 ± 0.65 |
| TTAGGACAAAAAAAAATAAAAATAAAATAAAATAAT [CACACA_negctrl_site1613] | 7.54 ± 0.64 |
| ATTTTTTTTTTTATAGTGGAACCACATTTGCCATTT [CACACA_negctrl_site1247] | 7.92 ± 0.63 |
| TATTAAATGAAACAAACACACATAGCCTTTAAATAT [CACACA_site1560] | 7.66 ± 0.58 |
| ATATATATATCATATTGTACATATTATTGTATAATC [XGTACX_site5020] | 8.85 ± 0.028 |
| AAATTATATATATTTACATGCAATATAATGAAATAA [TGCATGCA_site229] | 7.66 ± 0.67 |
| ATAAAATAAAACAGAGCACACATTTTATTTACATTC [CACACA_site696] | 7.89 ± 0.41 |
| TAAATTATAATAAATACACACAAATTATAATTCTAT [CACACA_site3942] | 7.71 ± 0.42 |
| CATTTTATAAAAAGCACACATATAGTTATATGCACA [CACACA_site3691] | 10.7 ± 0.91 |
| TATATATATATACATTGTACATTATTGATTATAACA [XGTACX_site1678] | 9.26 ± 0.31 |
| TTTGAATCCTTATATACACACATTATATAATATTAT [CACACA_site4472] | 8.02 ± 0.5 |
| TTTATTCTCCGACACACACACATATATTTATTTATA [CACACA_site7377] | 8.14 ± 0.28 |
| AAATTAGAATTAGGAACACACATATTTATATTTATA [CACACA_site7450] | 7.46 ± 0.59 |
| ATATATAAAAAATGTGGTACATTCATTTATTATACA [XGTACX_site3495] | 7.75 ± 0.13 |
| AATAAATAAATATATACACACATATATCTGTACATA [CACACA_site9034] | 7.68 ± 0.52 |
| AGGAAAAAAAAAATGTGTACTTAAAAAAAAAAAATT [XGTACX_site1471] | 7.91 ± 0.47 |
| TTTTATCATATTTATTGTACACATAATATACATATC [XGTACX_site1145] | 8.39 ± 0.45 |
| CGTTTATATTTTAACTGTACTCAAAAAGTGCATTGT [XGTACX_site6072] | 9.64 ± 0.38 |
| TTTTATATATTATATACACACATATATATATATATA [CACACA_site2999] | 9.46 ± 0.53 |
| TGTATGTTTATTTATCGTACATATATATATATATAT [XGTACX_site7315] | 9.44 ± 0.64 |
| ACATATTTCCAATAATGTACATACAAAATAAGAATG [XGTACX_site2659] | 7.82 ± 0.58 |
| TGTTCATTTATTTACTTACACACTTTATATATGTGG [CACACA_site1410] | 7.79 ± 0.59 |

| Sequence | gcPBM binding intensity (ln) |
| --- | --- |
| TAAAAGTAGATATATACACACATAAATATAGATGTA [CACACA_site6457] | 7.32 ± 0.45 |
| ACAAAGTAAAATAATGCATGTAGGTATACATAATTA [TGCATGCA_site607] | 7.71 ± 0.81 |
| AATATTTTATATAAATGTACATTTATGAATAATATA [XGTACX_site8477] | 7.76 ± 0.31 |
| GTGCTAAAAGTATATGCACACACATATATATGCACA [CACACA_site8472] | 10.9 ± 0.55 |
| AATAAAGCAATAAATACACACATATATATATATATA [CACACA_site2934] | 9.11 ± 0.11 |
| TATATAAAAAATAGGTGGTCAACTTAAATATTTTAT [XGTACX_site4495] | 7.83 ± 0.56 |
| AGTTATGCATCTTAGGTGCTATGCCCAATTTATTTT [GTGCAC_site9977] | 8.49 ± 0.67 |
| AACTTACTCTTTACAAGTACGTAAAAGAAATAGAAA [XGTACX_site1782] | 7.68 ± 0.49 |
| TTGCCTTAAAAAGGAACACACATGCTTTTTTTAGTT [CACACA_site938] | 7.68 ± 0.67 |
| AAAAAAAAAAAAAATGCACACATATATTTCCATATA [CACACA_site8416] | 9.04 ± 0.19 |
| AAAAATGTGCACACGCGTACACACAAAAAAAGAAAA [XGTACX_site4097] | 9.79 ± 0.62 |
| AAAATATATCAAAATAGTACATAATTTTTTAAGAAT [XGTACX_site3515] | 7.67 ± 0.45 |
| TTTTTTTCTTTTTTTTGTACTCATACATACTATCAT [XGTACX_site607] | 7.78 ± 0.51 |
| CACGTGTAAATAGTTTTACAATATCTCGATATGTAT [CACACA_negctrl_site785] | 7.78 ± 0.31 |
| TTACTATGTAAACACACATGCAATATATGTTAAGCC [TGCATGCA_site253] | 7.86 ± 0.68 |
| TTATATGAAAATTATTGTACAATCTATAAAAAAAAT [XGTACX_site4194] | 7.88 ± 0.42 |
| GTAATTATATACATACGTACATACACATATGTATAT [XGTACX_site4149] | 7.87 ± 0.33 |
| GGATATATGAAACATATTGAAAAACCGTTTAGTACA [CACACA_negctrl_site132] | 7.5 ± 0.57 |
| TAATTTTTGTAAACAGTCATGGATTCAAAAAAAAAA [CACACA_negctrl_site593] | 7.68 ± 0.8 |
| AAGGAAATAAGAAAAAGTACACATAAGTATATAACA [XGTACX_site1173] | 7.93 ± 0.59 |
| TAATAATCAAACTATACACACATAAATAAATATATA [CACACA_site156] | 7.59 ± 0.27 |
| ATATATCCAAATAGATTACATATATATATATAGATA [TGCATGCA_negctrl_site277] | 7.49 ± 0.33 |
| AAATATAATAAAATGACACACGCATATATATATATA [CACACA_site8900] | 9.38 ± 0.46 |

| Sequence | gcPBM binding intensity (ln) |
| --- | --- |
| AAATAAGAACATAGAATGCACTTTTTTTTTTTTTCC | 8.89 ± 0.45 |
| ATATATTTATATATTGCACACAAAAAAAAAAAAAAA [CACACA_site8468] | 10.5 ± 0.45 |
| AACATTATAAGACACACACACACATATATAAATATA [CACACA_site6622] | 8.18 ± 0.35 |
| GTATATATACATAAATGTACATATATATAAAAAATG [XGTACX_site3271] | 7.68 ± 0.52 |
| AATATATAAGTCTACTGTACCCAAAATAAAATTTAT [XGTACX_site8727] | 7.89 ± 0.26 |
| TATTGCCCTTGACACACACACATATAAATAAATATA [CACACA_site7220] | 8.3 ± 0.4 |
| TTAAACCGTGGGAGCACACACACACCCAGACACATA [CACACA_site4337] | 8.09 ± 0.38 |
| AAATATGTATATATATATATATATATATATATATAT [GTGCAC_negctrl_site335] | 9.15 ± 0.55 |
| TTATGGGACTCAAATACATGCAAAAATATTTTTAAG [TGCATGCA_site559] | 7.88 ± 0.64 |
| TAAGGTTAAATAATATGTACATATTATTATATATAT [XGTACX_site6953] | 8.28 ± 0.39 |
| AAAGAAAGTACCTTCACACATATAAGAATATAATAT [CACACA_site5214] | 7.72 ± 0.45 |
| AAAAAAAAAATATATTGTACAAATAGATATGTCAAT [XGTACX_site122] | 7.83 ± 0.67 |
| TGAAATACGAATTATTGTACTTATGTGTAAGATGGC [XGTACX_site4472] | 8.04 ± 0.56 |
| TTATTTTTTTTGTGTTGTACAATTTATTACTACTAA [XGTACX_site346] | 8 ± 0.47 |
| AATATATTTTAATATACACACATATATGCTCTTTAA [CACACA_site9371] | 7.82 ± 0.38 |
| TTATTTATGTGTAGGGCATGCAATCGTGTTTTTAAA [TGCATGCA_site735] | 8.01 ± 0.69 |
| GTATTTATAATACGGCGTACATAAAAAAAAAAAAAA [XGTACX_site3705] | 8.14 ± 0.45 |
| AAACAAATATGTAGCACACATTCACATAATATATTT [CACACA_site2335] | 8.38 ± 0.48 |
| TAATATGCATAAAATTGTACAAACTTACATATAATA [XGTACX_site2752] | 7.89 ± 0.38 |
| TTTTTTATAGGACATGCATGTTGTAGAGCTGTATAT [TGCATGCA_site704] | 8.1 ± 0.62 |
